The source of these data is patent US20260137776A1, “COMBINATION THERAPY OF A GPRC5D TCB AND PROTEASOME INHIBITORS” (Hoffmann-La Roche Inc., priority 2022, published 2026).

Series [1] concerns NCI-H929 multiple myeloma tumors. Kind of series: Efficacy against subcutaneous NCI-H929 multiple myeloma tumors in stem cell humanized NSG mice. In kind it is in vivo. The following applies: GPRC5D-TCB 0.1 mg/kg i.v. once weekly combined with Carfilzomib 3 mg/kg i.v. twice weekly, compared to GPRC5D-TCB monotherapy; FIG. 2A. On the procedure:
(§1) FIG. 2A, 2B, 2C. 2D: Results of an efficacy experiment evaluating GPRC5D-TCB as single agent and in combination with Carfilzomib against NCI-H929 multiple myeloma tumors subcutaneously engrafted into stem cell humanized NSG. (FIG. 2A) GPRC5D-TCB was injected intravenously at 0.1 mg/kg once weekly and combined with twice weekly intravenous administration of Carfilzomibat 3 mg/kg and NCI-H929 tumor growth was monitored. IFN-γ (FIG. 2B), IL-2 (FIG. 2C) and TNF-α (FIG. 2D) levels in serum of mice were determined 48 hours after first GPRC5D-TCB and 24 h after Carfilzomib injection using multiplex technology. Statistical analysis, ordinary one way ANOVA, Tukey test: p=<0.0001 (****); p=0.0001 to 0.001 (***); p=0.001 to 0.01 (**); p=0.01 to 0.05 (*): p=>0.05 (ns).
(§2) All in vivo efficacy and PD experiments were performed in humanized NSG mice carrying subcutaneous multiple myeloma xenograft tumors. […] Tumors growth was monitored twice weekly using Caliper measurements. In order to quantify tumor infiltrating lymphocytes, in some experiments tumors of scout animals were harvested and single cell suspensions were subjected to flow cytometry using FACSFortessa device and FlowJo software. Cytokine in serum of treated mice were analysed using the Bio-Plex Multiplex Immunoassay System from BioRad in combination with the Bio-Plex Pro Human Cytokine 27-plex Assay. […]

Series [2] concerns KMS-12BM multiple myeloma tumors. In words: Efficacy against subcutaneous KMS-12BM multiple myeloma tumors in stem cell humanized NSG mice. In kind it is in vivo. The following applies: FIGS. 1A, 1B. On the procedure: FIG. 1A, 1B: Results of an efficacy experiment evaluating GPRC5D-TCB as single agent and in combination with Bortezmib with or without Dexamethasone against KMS-12BM multiple myeloma tumors subcutaneously engrafted into stem cell humanized NSG. (FIG. 1A) GPRC5D-TCB was injected intravenously at 1 mg/kg once weekly and combined with twice weekly intravenous administration of Bortezomib at 0.25 mg/kg with or without oral Dexamethasone at 2 mg/kg and KMS-12BM tumor growth was monitored. (FIG. 1B) KMS-12BM tumor load of individual mice was evaluated at day 35 (end of study). Statistical analysis, ordinary one way ANOVA, Tukey test: p=<0.0001 (****); p=0.0001 to 0.001 (***); p=0.001 to 0.01 (**); p=0.01 to 0.05 (*); p=>0.05 (ns).
as §2

The test system of series [3] is IFN-γ, IL-2 and TNF-α levels in serum. Kind of series: Serum cytokine levels (IFN-γ, IL-2, TNF-α) by multiplex in NCI-H929 tumor bearing humanized mice. In kind it is in vivo, humanized NSG mice. The settings on record: combination with Carfilzomib; 48 hours after first GPRC5D-TCB and 24 h after Carfilzomib injection; FIGS. 2B, 2C, 2D. As to the method:
as §1, §2

B1: GPRC5D-TCB: anti-GPRC5D/anti-CD3 bispecific antibody, SEQ ID NO: 26, 27, 28 and 29 as disclosed in WO 2021/018859 A1 (protein)
chain 1: EIVLTQSPGTLSLSPGERATLSCRASQSVSISGINLMNWYQQKPGQQPKLLIYHASILASGIPDRFSGSGSGTDFTLTISRLEPEDFAVYYCQQTRESPLTFGQGTRLEIKRTVAAPSVFIFPPSDRKLKSGTASVVCLLNNFYPREAKVQWKVDNALQSGNSQESVTEQDSKDSTYSLSSTLTLSKADYEKHKVYACEVTHQGLSSPVTKSFNRGEC
chain 2: EVQLLESGGGLVQPGGSLRLSCAASGFQFSSYAMNWVRQAPGKGLEWVSRIRSKYNNYATYYADSVKGRFTISRDDSKNTLYLQMNSLRAEDTAVYYCVRHTTFPSSYVSYYGYWGQGTLVTVSSASVAAPSVFIFPPSDEQLKSGTASVVCLLNNFYPREAKVQWKVDNALQSGNSQESVTEQDSKDSTYSLSSTLTLSKADYEKHKVYACEVTHQGLSSPVTKSFNRGEC
chain 3: EVQLLESGGGLVQPGGSLRLSCAASGFTFSKYAMAWVRQAPGKGLEWVASISTGGVNTYYADSVKGRFTISRDNSKNTLYLQMNSLRAEDTAVYYCATHTGDYFDYWGQGTMVTVSSASTKGPSVFPLAPSSKSTSGGTAALGCLVEDYFPEPVTVSWNSGALTSGVHTFPAVLQSSGLYSLSSVVTVPSSSLGTQTYICNVNHKPSNTKVDEKVEPKSCDKTHTCPPCPAPEAAGGPSVFLFPPKPKDTLMISRTPEVTCVVVDVSHEDPEVKFNWYVDGVEVHNAKTKPREEQYNSTYRVVSVLTVLHQDWLNGKEYKCKVSNKALGAPIEKTISKAKGQPREPQVCTLPPSRDELTKNQVSLSCAVKGFYPSDIAVEWESNGQPENNYKTTPPVLDSDGSFFLVSKLTVDKSRWQQGNVFSCSVMHEALHNHYTQKSLSLSPGK
chain 4: EVQLLESGGGLVQPGGSLRLSCAASGFTFSKYAMAWVRQAPGKGLEWVASISTGGVNTYYADSVKGRFTISRDNSKNTLYLQMNSLRAEDTAVYYCATHTGDYFDYWGQGTMVTVSSASTKGPSVFPLAPSSKSTSGGTAALGCLVEDYFPEPVTVSWNSGALTSGVHTFPAVLQSSGLYSLSSVVTVPSSSLGTQTYICNVNHKPSNTKVDEKVEPKSCDGGGGSGGGGSQAVVTQEPSLTVSPGGTVTLTCGSSTGAVTTSNYANWVQEKPGQAFRGLIGGTNKRAPGTPARFSGSLLGGKAALTLSGAQPEDEAEYYCALWYSNLWVFGGGTKLTVLSSASTKGPSVFPLAPSSKSTSGGTAALGCLVKDYFPEPVTVSWNSGALTSGVHTFPAVLQSSGLYSLSSVVTVPSSSLGTQTYICNVNHKPSNTKVDKKV[human IgG1 Fc with changes cut from this listing]
With B1, in series [1], the “onset of tumor growth inhibition” value was “faster onset of tumor growth inhibition” and the tumor relapse entry is “delayed tumor relapse”. In addition, the “efficacy against KM12-BM tumors (tumor growth, tumor load at day 35)” value in series [2] (GPRC5D-TCB 1 mg/kg i.v. once weekly in combination with Bortezomib 0.25 mg/kg i.v. twice weekly) was “not compromised”. In addition, the “efficacy against KM12-BM tumors (tumor growth, tumor load at day 35)” value in series [2] (GPRC5D-TCB 1 mg/kg i.v. once weekly in triple combination with Bortezomib 0.25 mg/kg i.v. twice weekly and oral Dexamethasone 2 mg/kg) is listed as “boosted”. Also, in series [3], the “cytokine release (IFN-γ, IL-2, TNF-α in serum)” value was “slight decrease in cytokine release”.
